Some of the results follow. No stated cut-off is given here; in the data, active = 3.2 or more and inactive = the rest. Most of these values are background signal.
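Further: displayed peptides selected on beads carrying the immobilized SH2 domain, with library peptides lacking any tyrosine serving as negative controls.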

The target of one assay is SHP2 C-SH2 domain E139D. Kind of assay: enrichment score (SH2-bound / input frequency) (ratio); bacterial display of known human phosphotyrosine sites (pTyr-Var adds point mutants) read by sequencing; higher = stronger binding; tyrosines were phosphorylated by kinases first. The following applies: peptide library: Human pTyr.
Consider EIRPKEVYLDRKLLT [KSYK_HUMAN_364], for which the enrichment score was inactive: 0.651.

Turning to DIKNDSNYVVKGNAR [KIT_HUMAN_823], the enrichment score is inactive: 0.821.

With SDPERSDYEEQQLQK [ALKB5_HUMAN_71], the enrichment score is inactive: 0.905.

Take ALKETHCYDPGSNTW [KLH22_HUMAN_466_YA]: the enrichment score was inactive: 1.13.

For GGTPYAEYGGWYKAC [KLC4_HUMAN_449], the enrichment score is inactive: 1.42.

For TREEAEDYLVQGGMS [KSYK_HUMAN_28], the enrichment score is inactive: 0.764.

As for STFDAHIYEGRVIQI [KPCD_HUMAN_64], the enrichment score is inactive: 0.621.

Regarding SSEPVGIYQGFEKKT [KPCD_HUMAN_313], the enrichment score was inactive: 0.778.

As to VLLVTQHYAKISDFG [KSYK_HUMAN_507], the enrichment score was inactive: 2.4.

Take SETTVELYSLAERCR [KPCT_HUMAN_90]: the enrichment score was inactive: 0.984.

For the molecule KENLIREYVKQTWNL [KSYK_HUMAN_131], the enrichment score was inactive: 1.09.

As to NDTGSRYYKEIPLSE [KPCD1_HUMAN_463], the enrichment score was inactive: 0.732.

As for TEVAESPYADPEEIR [KSYK_HUMAN_352_YA], the enrichment score is inactive: 0.961.

Regarding SDFEGFSYVNPQFVH [KPCA_HUMAN_658], the enrichment score is inactive: 0.783.

As to IKQAKIHYIKNHEFI [KPCD_HUMAN_155], the enrichment score is inactive: 1.3.

On to KITLDNAYMEKCDEN [KPYM_HUMAN_148], for which the enrichment score was inactive: 1.06.

For the molecule YLKETHCYDPGSNTW [KLH22_HUMAN_466], the enrichment score is inactive: 1.23.

In the case of GGTPAAEYGGWAKAC [KLC4_HUMAN_449_YA], the enrichment score was inactive: 0.62.

A further assay addresses SHP2 C-SH2 domain wild-type. The assay is described as above. Conditions: peptide library: Human pTyr.
For the molecule EIRPKEVYLDRKLLT [KSYK_HUMAN_364], the enrichment score was inactive: 0.553.

As to DIKNDSNYVVKGNAR [KIT_HUMAN_823], the enrichment score was inactive: 0.866.

SDPERSDYEEQQLQK [ALKB5_HUMAN_71]: the enrichment score is inactive: 0.911.

Take ALKETHCYDPGSNTW [KLH22_HUMAN_466_YA]: the enrichment score is inactive: 0.953.

With GGTPYAEYGGWYKAC [KLC4_HUMAN_449], the enrichment score is inactive: 1.09.

In the case of TREEAEDYLVQGGMS [KSYK_HUMAN_28], the enrichment score was inactive: 0.543.

As for STFDAHIYEGRVIQI [KPCD_HUMAN_64], the enrichment score is inactive: 0.617.

Regarding SSEPVGIYQGFEKKT [KPCD_HUMAN_313], the enrichment score was inactive: 0.756.

For the molecule VLLVTQHYAKISDFG [KSYK_HUMAN_507], the enrichment score is active: 3.31.

As for SETTVELYSLAERCR [KPCT_HUMAN_90], the enrichment score was inactive: 0.784.

For the molecule KENLIREYVKQTWNL [KSYK_HUMAN_131], the enrichment score is inactive: 1.16.

Regarding NDTGSRYYKEIPLSE [KPCD1_HUMAN_463], the enrichment score was inactive: 0.697.

As for TEVAESPYADPEEIR [KSYK_HUMAN_352_YA], the enrichment score was inactive: 0.83.

With SDFEGFSYVNPQFVH [KPCA_HUMAN_658], the enrichment score is inactive: 0.66.

Consider IKQAKIHYIKNHEFI [KPCD_HUMAN_155], for which the enrichment score is inactive: 1.92.

With KITLDNAYMEKCDEN [KPYM_HUMAN_148], the enrichment score was inactive: 1.03.

Consider YLKETHCYDPGSNTW [KLH22_HUMAN_466], for which the enrichment score is inactive: 1.02.

In the case of GGTPAAEYGGWAKAC [KLC4_HUMAN_449_YA], the enrichment score is inactive: 0.599.

Another assay addresses SHP2 N-SH2 domain L43F. The assay is described as above. Conditions: peptide library: Human pTyr.
Consider EIRPKEVYLDRKLLT [KSYK_HUMAN_364], for which the enrichment score was inactive: 0.704.

For the molecule DIKNDSNYVVKGNAR [KIT_HUMAN_823], the enrichment score was inactive: 0.855.

In the case of SDPERSDYEEQQLQK [ALKB5_HUMAN_71], the enrichment score was inactive: 1.15.

As for ALKETHCYDPGSNTW [KLH22_HUMAN_466_YA], the enrichment score was inactive: 1.01.

GGTPYAEYGGWYKAC [KLC4_HUMAN_449]: the enrichment score was inactive: 1.21.

In the case of TREEAEDYLVQGGMS [KSYK_HUMAN_28], the enrichment score is inactive: 0.655.

Take STFDAHIYEGRVIQI [KPCD_HUMAN_64]: the enrichment score is inactive: 0.73.

Regarding SSEPVGIYQGFEKKT [KPCD_HUMAN_313], the enrichment score is inactive: 0.82.

As for VLLVTQHYAKISDFG [KSYK_HUMAN_507], the enrichment score was inactive: 2.23.

As for SETTVELYSLAERCR [KPCT_HUMAN_90], the enrichment score was inactive: 0.83.

Consider KENLIREYVKQTWNL [KSYK_HUMAN_131], for which the enrichment score was inactive: 1.07.

For the molecule NDTGSRYYKEIPLSE [KPCD1_HUMAN_463], the enrichment score is inactive: 0.836.

Consider TEVAESPYADPEEIR [KSYK_HUMAN_352_YA], for which the enrichment score is inactive: 0.831.

For SDFEGFSYVNPQFVH [KPCA_HUMAN_658], the enrichment score was inactive: 0.834.

IKQAKIHYIKNHEFI [KPCD_HUMAN_155]: the enrichment score was inactive: 2.18.

KITLDNAYMEKCDEN [KPYM_HUMAN_148]: the enrichment score was inactive: 1.

For YLKETHCYDPGSNTW [KLH22_HUMAN_466], the enrichment score was inactive: 1.13.

GGTPAAEYGGWAKAC [KLC4_HUMAN_449_YA]: the enrichment score is inactive: 0.622.

The target in a further assay is SHP2 N-SH2 domain T42A. The description is as above. The following applies: peptide library: Human pTyr.
On to EIRPKEVYLDRKLLT [KSYK_HUMAN_364], for which the enrichment score was inactive: 0.82.

For DIKNDSNYVVKGNAR [KIT_HUMAN_823], the enrichment score is inactive: 0.704.

On to SDPERSDYEEQQLQK [ALKB5_HUMAN_71], for which the enrichment score was inactive: 0.886.

Turning to ALKETHCYDPGSNTW [KLH22_HUMAN_466_YA], the enrichment score is inactive: 1.02.

In the case of GGTPYAEYGGWYKAC [KLC4_HUMAN_449], the enrichment score is inactive: 1.04.

Regarding TREEAEDYLVQGGMS [KSYK_HUMAN_28], the enrichment score was inactive: 0.657.

Turning to STFDAHIYEGRVIQI [KPCD_HUMAN_64], the enrichment score is inactive: 0.633.

For SSEPVGIYQGFEKKT [KPCD_HUMAN_313], the enrichment score was inactive: 0.506.

As for VLLVTQHYAKISDFG [KSYK_HUMAN_507], the enrichment score was inactive: 2.1.

SETTVELYSLAERCR [KPCT_HUMAN_90]: the enrichment score was inactive: 0.941.

Turning to KENLIREYVKQTWNL [KSYK_HUMAN_131], the enrichment score is inactive: 1.23.

Regarding NDTGSRYYKEIPLSE [KPCD1_HUMAN_463], the enrichment score was inactive: 0.945.

On to TEVAESPYADPEEIR [KSYK_HUMAN_352_YA], for which the enrichment score is inactive: 1.04.

SDFEGFSYVNPQFVH [KPCA_HUMAN_658]: the enrichment score was inactive: 0.842.

Take IKQAKIHYIKNHEFI [KPCD_HUMAN_155]: the enrichment score was inactive: 1.43.

KITLDNAYMEKCDEN [KPYM_HUMAN_148]: the enrichment score is inactive: 0.993.

As to YLKETHCYDPGSNTW [KLH22_HUMAN_466], the enrichment score was inactive: 1.18.

Consider GGTPAAEYGGWAKAC [KLC4_HUMAN_449_YA], for which the enrichment score is inactive: 0.637.

The target in a further assay is SHP2 N-SH2 domain T52S. The assay is described as above. Conditions: peptide library: Human pTyr.
As to EIRPKEVYLDRKLLT [KSYK_HUMAN_364], the enrichment score is inactive: 0.748.

DIKNDSNYVVKGNAR [KIT_HUMAN_823]: the enrichment score was inactive: 0.784.

As for SDPERSDYEEQQLQK [ALKB5_HUMAN_71], the enrichment score was inactive: 1.32.

Regarding ALKETHCYDPGSNTW [KLH22_HUMAN_466_YA], the enrichment score was inactive: 1.12.

Consider GGTPYAEYGGWYKAC [KLC4_HUMAN_449], for which the enrichment score was inactive: 1.26.

TREEAEDYLVQGGMS [KSYK_HUMAN_28]: the enrichment score is inactive: 0.805.

For the molecule STFDAHIYEGRVIQI [KPCD_HUMAN_64], the enrichment score is inactive: 0.635.

As to SSEPVGIYQGFEKKT [KPCD_HUMAN_313], the enrichment score is inactive: 0.738.

On to VLLVTQHYAKISDFG [KSYK_HUMAN_507], for which the enrichment score is inactive: 2.51.

SETTVELYSLAERCR [KPCT_HUMAN_90]: the enrichment score is inactive: 1.04.

Regarding KENLIREYVKQTWNL [KSYK_HUMAN_131], the enrichment score is inactive: 1.15.

With NDTGSRYYKEIPLSE [KPCD1_HUMAN_463], the enrichment score was inactive: 0.853.

Take TEVAESPYADPEEIR [KSYK_HUMAN_352_YA]: the enrichment score is inactive: 1.01.

In the case of SDFEGFSYVNPQFVH [KPCA_HUMAN_658], the enrichment score is inactive: 0.842.

On to IKQAKIHYIKNHEFI [KPCD_HUMAN_155], for which the enrichment score was inactive: 1.35.

With KITLDNAYMEKCDEN [KPYM_HUMAN_148], the enrichment score is inactive: 1.05.

For the molecule YLKETHCYDPGSNTW [KLH22_HUMAN_466], the enrichment score is inactive: 1.25.

For the molecule GGTPAAEYGGWAKAC [KLC4_HUMAN_449_YA], the enrichment score was inactive: 0.685.

A further assay has as its target SHP2 N-SH2 domain wild-type. Described as above. The following applies: peptide library: Human pTyr.
Consider EIRPKEVYLDRKLLT [KSYK_HUMAN_364], for which the enrichment score was inactive: 0.802.

Consider DIKNDSNYVVKGNAR [KIT_HUMAN_823], for which the enrichment score was inactive: 0.756.

As to SDPERSDYEEQQLQK [ALKB5_HUMAN_71], the enrichment score is inactive: 1.43.

As to ALKETHCYDPGSNTW [KLH22_HUMAN_466_YA], the enrichment score was inactive: 1.27.

Turning to GGTPYAEYGGWYKAC [KLC4_HUMAN_449], the enrichment score was inactive: 1.36.

On to TREEAEDYLVQGGMS [KSYK_HUMAN_28], for which the enrichment score was inactive: 0.636.

As to STFDAHIYEGRVIQI [KPCD_HUMAN_64], the enrichment score was inactive: 0.613.

Regarding SSEPVGIYQGFEKKT [KPCD_HUMAN_313], the enrichment score was inactive: 0.791.

In the case of VLLVTQHYAKISDFG [KSYK_HUMAN_507], the enrichment score was inactive: 2.6.

For the molecule SETTVELYSLAERCR [KPCT_HUMAN_90], the enrichment score is inactive: 1.12.

Take KENLIREYVKQTWNL [KSYK_HUMAN_131]: the enrichment score is inactive: 1.35.

In the case of NDTGSRYYKEIPLSE [KPCD1_HUMAN_463], the enrichment score was inactive: 0.838.

On to TEVAESPYADPEEIR [KSYK_HUMAN_352_YA], for which the enrichment score was inactive: 0.92.

Take SDFEGFSYVNPQFVH [KPCA_HUMAN_658]: the enrichment score was inactive: 0.799.

As to IKQAKIHYIKNHEFI [KPCD_HUMAN_155], the enrichment score is inactive: 2.02.

With KITLDNAYMEKCDEN [KPYM_HUMAN_148], the enrichment score is inactive: 0.832.

YLKETHCYDPGSNTW [KLH22_HUMAN_466]: the enrichment score is inactive: 1.27.

As for GGTPAAEYGGWAKAC [KLC4_HUMAN_449_YA], the enrichment score is inactive: 0.601.

Values taken from the supplement of paper PMC10369915.
